Assay results taken from a collection of fitness landscapes (doi:10.1016/j.celrep.2020.107928).
In all, about 81,000 sequences were measured (“one-hybrid fitness for binding parS DNA”: median about -0.17, highest 2% from about 0.51 on). The list shows a part of the results.

B1: Caulobacter ParB omega fusion; a variant is named by its letters at X, in order, B8GW30 (parent)
chain: MESVVVGEPGMSEGRRGLGRGLSALLGEVDAAPAQAPGEQLGGSREAPIEILQRNPDQPRRTFREEDLEDLSNSIREKGVLQPILVRPSPDTAGEYQIVAGERAWRAAQRAGLKTVPIMVRELDDLAVLEIGIIENVQRADLNVLEEALSYKVLMEKFERTQENIAQTIGKSXSHVANXMRLLXLPDEVQSYLVSGELTAXHARAIAAAADPVALAKQIIEGGLSVRETEALARKAPNLSAGKSKGGRPPRVKDTDTQALESDLSSVLGLDVSIDHRGSTGTLTITYATLEQLDDLCNRLTRGI

Variants of: B1
Assay: one-hybrid fitness for binding parS DNA (scaled: cognate 1, non-cognate 0); higher = stronger binding
Details: with parS DNA site
Summary of the method: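 Values were rescaled so that cognate is 1 and non-cognate is 0. Each is a fitness, the log change in a variant's read ratio to wild type from Illumina reads of plasmids before and after selection, with three replicate libraries pooled and variants under 10 reads dropped. Selection of the Caulobacter ParB libraries, four specificity codons randomised, used E. coli USO with a HIS3 reporter, site 19 bp from the promoter, on M9-minus-histidine with 0.1 mM IPTG and 5 mM 3-AT for 48 hours at 37°C.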

Variant	one-hybrid fitness for binding parS DNA
TLND	≤ 0.2
THAK	≤ 0.2
RMER	≤ 0.2
TNNF	≤ 0.2
HCMS	≤ 0.2
YQLG	≤ 0.2
WSRC	≤ 0.2
PMRT	≤ 0.2
TWKN	≤ 0.2
LHDM	≤ 0.2
TCTL	≤ 0.2
KVLY	≤ 0.2
ACLA	≤ 0.2
GSCC	≤ 0.2
QCGK	≤ 0.2
RMVD	≤ 0.2
TKAD	≤ 0.2
YTHL	≤ 0.2
NAKI	≤ 0.2
RSYA	0.602
AANE	≤ 0.2
NCRR	≤ 0.2
NYNG	≤ 0.2
GRKM	≤ 0.2
QQEG	≤ 0.2
KLTI	≤ 0.2

Variant	one-hybrid fitness for binding parS DNA
GPQC	≤ 0.2
SIDC	≤ 0.2
RINM	0.381
CYFC	≤ 0.2
RIVQ	≤ 0.2
DFIT	≤ 0.2
LCLD	≤ 0.2
MREY	≤ 0.2
YNWS	≤ 0.2
QTAL	≤ 0.2
QPNN	≤ 0.2
DMIS	≤ 0.2
FPPC	≤ 0.2
PYPS	≤ 0.2
VDTG	≤ 0.2
GDQT	≤ 0.2
SKAT	≤ 0.2
AAAM	≤ 0.2
TDQY	≤ 0.2
GVGA	≤ 0.2
MHQV	≤ 0.2
QRAV	≤ 0.2
WEMG	≤ 0.2
AASN	≤ 0.2
LCST	≤ 0.2
GWGR	≤ 0.2

Variant	one-hybrid fitness for binding parS DNA
HKGS	≤ 0.2
PNDL	≤ 0.2
LCEL	≤ 0.2
VDEV	≤ 0.2
LMIG	≤ 0.2
DYGL	≤ 0.2
PNYD	≤ 0.2
RSLF	0.228
RCHN	0.459
RTRV	≤ 0.2
LIRL	≤ 0.2
HGVA	≤ 0.2
YIQV	≤ 0.2
APKS	≤ 0.2
PDLC	≤ 0.2
LLYS	≤ 0.2
DVAS	≤ 0.2
GYHW	≤ 0.2
NNLA	≤ 0.2
QSRR	≤ 0.2
ENKF	≤ 0.2
TEYC	≤ 0.2
VGIS	≤ 0.2
TAWS	≤ 0.2
YGLF	≤ 0.2
NRAS	≤ 0.2

Variant	one-hybrid fitness for binding parS DNA
LRVT	≤ 0.2
QCLI	≤ 0.2
HRCC	≤ 0.2
LRYR	≤ 0.2
LRAR	≤ 0.2
GMTD	≤ 0.2
NMKG	≤ 0.2
LVCC	≤ 0.2
MELI	≤ 0.2
ILAD	≤ 0.2
AAGK	≤ 0.2
PHHC	≤ 0.2
MYHW	≤ 0.2
PLAG	≤ 0.2
KQMS	≤ 0.2
GHYL	≤ 0.2
AHIH	≤ 0.2
GEQR	≤ 0.2
QQFY	≤ 0.2
TFTG	≤ 0.2
HRRY	≤ 0.2
CCHR	≤ 0.2
TCNT	≤ 0.2
QQKW	≤ 0.2
ELKC	≤ 0.2
AADM	≤ 0.2

Variant	one-hybrid fitness for binding parS DNA
DRDL	≤ 0.2
APNC	≤ 0.2
DLWR	≤ 0.2
ASQE	≤ 0.2
TDYN	≤ 0.2
AEHL	≤ 0.2
LLNE	≤ 0.2
PPPN	≤ 0.2
CCKT	≤ 0.2
APKT	≤ 0.2
QPIV	≤ 0.2
QRCN	≤ 0.2
LDDL	≤ 0.2
HLMS	≤ 0.2
MFAV	≤ 0.2
QLQS	≤ 0.2
KLAS	≤ 0.2
WNGR	≤ 0.2
SFTR	≤ 0.2
PHGG	≤ 0.2
HAQN	≤ 0.2
WKQG	≤ 0.2
QVCP	≤ 0.2
SCKV	≤ 0.2
TADM	≤ 0.2
FDVS	≤ 0.2

Variant	one-hybrid fitness for binding parS DNA
VSSG	≤ 0.2
WIKE	≤ 0.2
PDFG	≤ 0.2
PFFD	≤ 0.2
RVMF	0.243
LTRN	≤ 0.2
PCWT	≤ 0.2
HEKT	≤ 0.2
NLFS	≤ 0.2
EFST	≤ 0.2
DPVE	≤ 0.2
DKLV	≤ 0.2
PWTS	≤ 0.2
HRWG	≤ 0.2
RPCV	≤ 0.2
RWDE	≤ 0.2
LMTH	≤ 0.2
PRTI	≤ 0.2
TQDL	≤ 0.2
WCKC	≤ 0.2
PSEW	≤ 0.2
QDKR	≤ 0.2
NLQG	≤ 0.2
